Where two headings read alike, the source gives them in different places.
Assays:
[1] = tested on: pseudovirus NL4-3-ADA-Luc (R5-tropic); conditions: read-out: Inhibition of Virus-Cell Fusion, IC50; Cells: U87-CD4-CCR5; Virus: NL4-3-ADA-Luc
[2] = tested on: pseudovirus NL4-3-ADA-Luc (R5-tropic); test: microbe, parasite or virus in culture; conditions: NL43, U87/CD4/CCR5, read-out: Inhibition of Virus-Cell Fusion, IC50

Compound | IC50 [1] [µM] | IC50 [2] [µM]
Cc1ccc(NC(=O)C(=O)NC(c2nc(C)c(CO)s2)C2CCCCN2)cc1F.Cl (centres unmarked) [Compound 28, N^1-(3-fluoro-4-methylphenyl)-N^2-((5-(hydroxymethyl)-4-methylthiazol-2-yl)(piperidin-2-yl)methyl)oxalamide.HCl] | 17.3 ± 0.4 | 
Cc1nc(C(NC(=O)C(=O)Nc2ccc(Cl)cc2)C2CCCCN2)sc1CO.Cl (centres unmarked) [Compound 6, N^1-(4-chlorophenyl)-N^2-((5-(hydroxymethyl)-4-methylthiazol-2-yl)(piperidin-2-yl)methyl)oxalamide.HCl] | 9.1 ± 0.7 | 
Cc1nc(C(NC(=O)C(=O)Nc2ccc(Cl)c(F)c2)C2CCCCN2)sc1CCO.Cl (centres unmarked) [Compound 39, N^1-(4-chloro-3-fluorophenyl)-N^2-((5-(2-hydroxyethyl)-4-methylthiazol-2-yl)(piperidin-2-yl)methyl)oxalamide.HCl] | 3.7 ± 0.4 | 
Cc1nc(C(NC(=O)C(=O)Nc2ccc(Cl)c(F)c2)C2CCCCN2)sc1CO (centres unmarked) [Compound 27, N^1-(4-chloro-3-fluorophenyl)-N^2-((5-(hydroxymethyl)-4-methylthiazol-2-yl)(piperidin-2-yl)methyl)oxalamide.2HCl] |  | 16 ± 0.6
CC1(C)CC(NC(=O)C(=O)Nc2ccc(Cl)cc2)CC(C)(C)N1 [NBD-556, reference compound] | 11 ± 1.6 | 
